Reference: patent US9023789B2, “Amylin analogs and pharmaceutical compositions thereof” (Novo Nordisk A/S, priority 2012, dated 2015)
At least one read-out could not be matched to a standard name with certainty. Numbered stars: 1 amine (or outer) side, 2 acyl side, 3 side chain; on linkers, the order of the positions; unused ones are H or OH. Bridge positions count the residues as written; N and C are the ends. Side chains are listed from the residue outwards. Peptide text beside a SMILES is read from it. * marks the point of attachment. C20 diacid = O=C(O)CCCCCCCCCCCCCCCCCCC(=O)*; γGlu = O=C(O)[C@H](CCC(=O)[*:2])N[*:1]

Assay: ASSAY (III) ThT fibrillation assay for physical stability
Assay type: physicochemical
Text: Assay (III)—ThT Fibrillation Assays for the Assessment of Physical Stability of Protein Formulations Low physical stability of a polypeptide may lead to amyloid fibril formation, which is observed as well-ordered, thread-like macromolecular structures in the sample eventually resulting in gel formation. This has traditionally been measured by visual inspection of the sample. However, that kind of measurement is very subjective and depending on the observer. Therefore, the application of a small molecule indicator probe is much more advantageous. Thioflavin T (ThT) is such a probe and has a distinct fluorescence signature when binding to fibrils [Naiki et al. (1989) Anal. […] LeVine (1999) Methods. Enzymol. […], 274-284]. The time course for fibril formation can be described by a sigmoidal curve with the following expression [Nielsen et al. (2001) Biochemistry 40, 6036-6046]; […] Here, F is the ThT fluorescence at the time t. The constant t0 is the time needed to reach 50% of maximum fluorescence. […] Few of those intermediates nucleate to form a template onto which further intermediates may assembly and the fibrillation proceeds. The lag-time corresponds to the interval in which the critical mass of nucleus is built up and the apparent rate constant is the rate with which the fibril itself is formed. Sample Preparation Samples were prepared freshly before each assay. Each sample composition is described in each example. The pH of the sample was adjusted to the desired value using appropriate amounts of concentrated NaOH and HClO4 or HCl. Thioflavin T was added to the samples from a stock solution in H2O to a final concentration of 1 μM. Sample aliquots of 200 μl were placed in a 96 well microtiter plate (Packard OptiPlate™96, white polystyrene). Usually, four or eight replica of each sample (corresponding to one test condition) were placed in one column of wells. The plate was sealed with Scotch Pad (Qiagen). Incubation and Fluorescence Measurement Incubation at given temperature, shaking and measurement of the ThT fluorescence emission were done in a Fluoroskan Ascent FL fluorescence platereader or Varioskan platereader (Thermo Labsystems). The temperature was adjusted to 37° C. The orbital shaking was adjusted to 960 rpm with an amplitude of 1 mm in all the presented data. Fluorescence measurement was done using excitation through a 444 nm filter and measurement of emission through a 485 nm filter. Each run was initiated by incubating the plate at the assay temperature for 10 min. The plate was measured every 20 minutes for a desired period of time. Between each measurement, the plate was shaken and heated as described. Data Handling The measurement points were saved in Microsoft Excel format for further processing and curve drawing and fitting was performed using GraphPad Prism. The background emission from ThT in the absence of fibrils was negligible. The data points are typically a mean of four or eight samples and shown with standard deviation error bars. Only data obtained in the same experiment (i.e. samples on the same plate) are presented in the same graph ensuring a relative measure of fibrillation between experiments. The data set may be fitted to Eq. […] However, since full sigmodial curves in this case are not always achieved during the measurement time, the degree of fibrillation is expressed as ThT fluorescence tabulated as the mean of the samples and shown with the standard deviation at various time points. Measurement of Initial and Final Concentrations The polypeptide concentration in each of the tested formulations were measured both before application in the ThT fibrillation assay (“Initial”) and after completion of the ThT fibrillation (“After ThT assay”). Concentrations were determined by reverse HPLC methods using a pramlintide standard as a reference. Before measurement after completion 150 μl was collected from each of the replica and transferred to an Eppendorf tube. These were centrifuged at 30000 G for 40 mins. […]

SMILES | ThT pH 4.0 recovery (%)
CC(C)C[C@H](NC(=O)[C@H](CCCNC(=N)N)NC(=O)[C@H](CCC(N)=O)NC(=O)[C@@H](NC(=O)[C@H](C)NC(=O)[C@@H]1CSSC[C@H](NC(=O)[C@@H](N)CCCCNC(=O)CC[C@H](NC(=O)CC[C@H](NC(=O)CCCCCCCCCCCCCCCCCCC(=O)O)C(=O)O)C(=O)O)C(=O)N[C@@H](CC(N)=O)C(=O)N[C@@H]([C@@H](C)O)C(=O)N[C@@H](C)C(=O)N[C@@H]([C@@H](C)O)C(=O)N1)[C@@H](C)O)C(=O)N[C@@H](C)C(=O)N[C@@H](CC(=O)O)C(=O)N[C@@H](Cc1ccccc1)C(=O)N[C@@H](CC(C)C)C(=O)N[C@@H](CCCNC(=N)N)C(=O)N[C@@H](Cc1c[nH]cn1)C(=O)N[C@@H](CO)C(=O)N[C@@H](CO)C(=O)N1CCC[C@H]1C(=O)N[C@@H](CC(N)=O)C(=O)N[C@@H](Cc1ccccc1)C(=O)NCC(=O)N[C@@H](C)C(=O)N1CCC[C@H]1C(=O)N[C@@H](CC(C)C)C(=O)N[C@@H](CO)C(=O)N[C@@H](CO)C(=O)N[C@H](C(=O)N[C@@H](CC(N)=O)C(=O)N[C@H](C(=O)NCC(=O)N[C@@H](CO)C(=O)N[C@@H](CC(=O)O)C(=O)N[C@H](C(=O)N[C@@H](Cc1ccc(O)cc1)C(N)=O)[C@@H](C)O)C(C)C)[C@@H](C)O [Example 1] (H-K([γGlu-γGlu-C20 diacid])CNTATCATQRLADFLRHSSPNFGAPLSSTNVGSDTY-NH2; disulfide 2-7) | 0
CC[C@H](C)[C@H](NC(=O)[C@H](C)NC(=O)CNC(=O)[C@H](Cc1ccccc1)NC(=O)[C@H](CC(N)=O)NC(=O)[C@@H]1CCCN1C(=O)[C@H](CO)NC(=O)[C@H](CO)NC(=O)[C@H](Cc1c[nH]cn1)NC(=O)[C@H](CCCNC(=N)N)NC(=O)[C@H](CC(C)C)NC(=O)[C@H](Cc1ccccc1)NC(=O)[C@H](CC(=O)O)NC(=O)[C@H](C)NC(=O)[C@H](CC(C)C)NC(=O)[C@H](CCCNC(=N)N)NC(=O)[C@H](CCC(N)=O)NC(=O)[C@@H](NC(=O)[C@H](C)NC(=O)[C@@H]1CSSC[C@H](NC(=O)[C@@H](N)CCCCNC(=O)CC[C@H](NC(=O)CC[C@H](NC(=O)CCCCCCCCCCCCCCCCCCC(=O)O)C(=O)O)C(=O)O)C(=O)N[C@@H](CC(N)=O)C(=O)N[C@@H]([C@@H](C)O)C(=O)N[C@@H](C)C(=O)N[C@@H]([C@@H](C)O)C(=O)N1)[C@@H](C)O)C(=O)N1CCC[C@H]1C(=O)N[C@@H](CO)C(=O)N[C@@H](CO)C(=O)N[C@H](C(=O)N[C@@H](CC(N)=O)C(=O)N[C@H](C(=O)NCC(=O)N[C@@H](CO)C(=O)N[C@@H](CC(=O)O)C(=O)N[C@H](C(=O)N[C@@H](Cc1ccc(O)cc1)C(N)=O)[C@@H](C)O)C(C)C)[C@@H](C)O [Example 2] (H-K([γGlu-γGlu-C20 diacid])CNTATCATQRLADFLRHSSPNFGAIPSSTNVGSDTY-NH2; disulfide 2-7; N-terminus assumed) | 1
CC[C@H](C)[C@H](NC(=O)[C@H](C)NC(=O)CNC(=O)[C@H](Cc1ccccc1)NC(=O)[C@H](CC(N)=O)NC(=O)[C@@H]1CCCN1C(=O)[C@H](CO)NC(=O)[C@H](CO)NC(=O)[C@H](Cc1c[nH]cn1)NC(=O)[C@H](CCCNC(=N)N)NC(=O)[C@H](CC(C)C)NC(=O)[C@H](Cc1ccccc1)NC(=O)[C@H](CCC(=O)O)NC(=O)[C@H](C)NC(=O)[C@H](CC(C)C)NC(=O)[C@H](CCCNC(=N)N)NC(=O)[C@H](CCC(N)=O)NC(=O)[C@@H](NC(=O)[C@H](C)NC(=O)[C@@H]1CSSC[C@H](NC(=O)[C@H](CCCCN)NC(=O)CC[C@H](NC(=O)CCCCCCCCCCCCCCCCCCC(=O)O)C(=O)O)C(=O)N[C@@H](CC(N)=O)C(=O)N[C@@H]([C@@H](C)O)C(=O)N[C@@H](C)C(=O)N[C@@H]([C@@H](C)O)C(=O)N1)[C@@H](C)O)C(=O)N1CCC[C@H]1C(=O)N[C@@H](CO)C(=O)N[C@@H](CO)C(=O)N[C@H](C(=O)N[C@@H](CC(N)=O)C(=O)N[C@H](C(=O)NCC(=O)N[C@@H](CO)C(=O)N[C@@H](CC(N)=O)C(=O)N[C@H](C(=O)N1CCC[C@H]1C(N)=O)[C@@H](C)O)C(C)C)[C@@H](C)O [Example 8] ({C20 diacid-γGlu}-KCNTATCATQRLAEFLRHSSPNFGAIPSSTNVGSNTP-NH2; disulfide 2-7) | 94
CC[C@H](C)[C@H](NC(=O)[C@H](C)NC(=O)CNC(=O)[C@H](Cc1ccccc1)NC(=O)[C@H](CC(N)=O)NC(=O)[C@@H]1CCCN1C(=O)[C@H](CO)NC(=O)[C@H](CO)NC(=O)[C@H](Cc1c[nH]cn1)NC(=O)[C@H](CCCNC(=N)N)NC(=O)[C@H](CC(C)C)NC(=O)[C@H](Cc1ccccc1)NC(=O)[C@H](CCC(=O)O)NC(=O)[C@H](C)NC(=O)[C@H](CC(C)C)NC(=O)[C@H](CCCNC(=N)N)NC(=O)[C@H](CCC(N)=O)NC(=O)[C@@H](NC(=O)[C@H](C)NC(=O)[C@@H]1CSSC[C@H](NC(=O)[C@H](CCCCN)NC(=O)CC[C@H](NC(=O)CCCCCCCCCCCCCCCCCCC(=O)O)C(=O)O)C(=O)N[C@@H](CC(N)=O)C(=O)N[C@@H]([C@@H](C)O)C(=O)N[C@@H](C)C(=O)N[C@@H]([C@@H](C)O)C(=O)N1)[C@@H](C)O)C(=O)N1CCC[C@H]1C(=O)N[C@@H](CO)C(=O)N[C@@H](CO)C(=O)N[C@H](C(=O)N[C@@H](CC(N)=O)C(=O)N[C@H](C(=O)NCC(=O)N[C@@H](CO)C(=O)N[C@@H](CC(N)=O)C(=O)N[C@H](C(=O)N[C@@H](Cc1ccc(O)cc1)C(N)=O)[C@@H](C)O)C(C)C)[C@@H](C)O [Example 9] | 51
CC[C@H](C)[C@H](NC(=O)[C@H](C)NC(=O)CNC(=O)[C@H](Cc1ccccc1)NC(=O)[C@H](CC(N)=O)NC(=O)[C@@H]1CCCN1C(=O)[C@H](CO)NC(=O)[C@H](CO)NC(=O)[C@H](Cc1c[nH]cn1)NC(=O)[C@H](CCCNC(=N)N)NC(=O)[C@H](CC(C)C)NC(=O)[C@H](Cc1ccccc1)NC(=O)[C@H](CC(=O)O)NC(=O)[C@H](C)NC(=O)[C@H](CC(C)C)NC(=O)[C@H](CCCNC(=N)N)NC(=O)[C@H](CCC(N)=O)NC(=O)[C@@H](NC(=O)[C@H](C)NC(=O)[C@@H]1CSSC[C@H](NC(=O)[C@H](CCCCN)NC(=O)CC[C@H](NC(=O)CCCCCCCCCCCCCCCCCCC(=O)O)C(=O)O)C(=O)N[C@@H](CC(N)=O)C(=O)N[C@@H]([C@@H](C)O)C(=O)N[C@@H](C)C(=O)N[C@@H]([C@@H](C)O)C(=O)N1)[C@@H](C)O)C(=O)N1CCC[C@H]1C(=O)N[C@@H](CO)C(=O)N[C@@H](CO)C(=O)N[C@H](C(=O)N[C@@H](CC(N)=O)C(=O)N[C@H](C(=O)NCC(=O)N[C@@H](CO)C(=O)N[C@@H](CC(N)=O)C(=O)N[C@H](C(=O)N1CCC[C@H]1C(N)=O)[C@@H](C)O)C(C)C)[C@@H](C)O [Example 10] ({C20 diacid-γGlu}-KCNTATCATQRLADFLRHSSPNFGAIPSSTNVGSNTP-NH2; disulfide 2-7 (inferred)) | 91
